Assay results as given in PubChem BioAssay AID1347073 (National Center for Advancing Translational Sciences (NCATS), 2019).
Screen size: about 45,000 compounds; about 200 (0.44%) were called active. Inconclusive results (about 7%) are left out. Calls follow the shape of the dose curve; as a rule, active = well fitted activation curve with a large enough effect; inconclusive = small, poorly fitted or top-dose-only effect; inactive = no such curve, though single readings can be large or run the other way. Some of the results follow.

Test: qHTS of TDP-43 Inhibitors: NCGC Sytravon Library Screen; also: 0% is about no effect; nearly all actives have a fitted effect of over 55% in size
Details: yeast TDP-43 toxicity rescue, BacTiter-Glo growth, 24 h; series mostly up to 46.1 µM; growth rescue (activation): at the top concentration
In short: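 TDP-43-expressing yeast, pregrown in raffinose, seeded at OD600 0.02 in galactose medium with compound for 24 hr at 30 deg C. Growth read by BacTiter-Glo luminescence, so rescue of toxicity appears as activation.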

| SMILES | growth rescue (activation) |
| --- | --- |
| Cc1ccc(CNc2nc(-c3cccnc3)nc3ccccc23)cc1 | inactive: 3.63% |
| CC(C)(C)c1ccc(Cn2nnc3c(=O)[nH]c(C4CCCN(C(=O)c5cccs5)C4)nc32)cc1 (stereo not drawn) | inactive: -0.362% |
| CC(=O)c1ccc(Nc2cc(C)nc3c(C)cc(C)cc23)cc1 | inactive: 19.9% |
| COc1ccc(O)c(/C=N/NC(=O)c2ccc(CSc3nc(C)cc(C)n3)cc2)c1 | inactive: 8.49% |
| CCn1c(SCC(=O)N2CCCCCC2)nc2ccccc2c1=O | inactive: -1.62% |
| Cc1noc(C)c1C(=O)N1CCCC(C(=O)c2cccc(OC(C)C)c2)C1 (stereo not drawn) | inactive: 3.52% |
| CCc1cc2cccc(C)c2nc1SCC(=O)Nc1cc(C)on1 | inactive: 16.6% |
| CCn1cc(C(=O)N2CCCc3ccccc32)c2cc(OC)c(OC)cc2c1=O | inactive: 24.5% |
| CCOC(=O)c1c(CSCc2ccccc2)oc2ccc(O)c(CN(C)C)c12 | inactive: 2.62% |
| CCOc1ccc(C(C)C)cc1S(=O)(=O)n1ccnc1C | inactive: 0.573% |
| CC(C)(Oc1ccc(Cl)cc1)C(=O)N1CCN(c2ccccn2)CC1 | inactive: 25.4% |
| COc1cccc(/C(C)=N/NS(=O)(=O)c2ccc(Cl)cc2)c1 | inactive: 5.12% |
| CCOc1ccccc1NC(=O)CCCNC(=O)Cn1cnc2sc(C)c(C)c2c1=O | inactive: -14.8% |
| CC1CN(Cc2csc(-c3ccc(Cl)cc3)n2)CC(C)O1 (stereo not drawn) | inactive: 3.09% |
| CN(C)S(=O)(=O)c1cccc(NC(=O)CSc2nncn2C)c1 | inactive: 4.49% |
| COc1cccc(/C=N/Nc2nc3ccccc3n3cnnc23)c1 | inactive: -5.37% |
| Cn1nc(C(C)(C)C)c([N+](=O)[O-])c1C(N)=O | inactive: 4.11% |
| CN(CCCNC(=O)CSc1cc(=O)n(C)c2cc(Cl)ccc12)Cc1ccccc1 | inactive: 5.09% |
| CC(NC(=O)c1ccccc1NC(=O)CN1CCc2ccccc2C1)c1ccccc1 (stereo not drawn) | inactive: 18.1% |
| CCN(CC)C(=O)c1ccc2nc([C@@H]3O[C@H](CO)[C@H](O)[C@H](O)[C@H]3O)[nH]c2c1 | inactive: -5.43% |
| CCc1nc2c(OCCOc3ccccc3)cccn2c1N(C)C(=O)c1ccccc1F | inactive: 6.11% |
| CCCCNC1=CC(=O)C(=O)c2ccccc21 | inactive: 9.09% |
| COc1ccc(Cl)cc1C(=O)NNC(=S)NC1CCCC1 | inactive: 25.9% |

| SMILES | growth rescue (activation) |
| --- | --- |
| O=c1c2[nH]c3ccccc3c2nc2n1CCCS2 | inactive: 0.881% |
| Cc1cnc(NC(=O)c2ccc3ncsc3c2)s1 | inactive: -4.72% |
| COc1ccc(CN2C[C@@H](CO)O[C@@H](n3cnc4c(N5CCOCC5)ncnc43)C2)cc1 | inactive: -8.18% |
| COc1ccc(N2CC(C(=O)OCC(=O)Nc3cc(C)on3)CC2=O)cc1 (stereo not drawn) | inactive: 0.974% |
| COC(=O)NCC(C)OC(=O)Nc1ccc(Cl)cc1 (stereo not drawn) | inactive: -15% |
| Cc1ccc(C(=O)NCC2CCCO2)cc1[N+](=O)[O-] (stereo not drawn) | inactive: -8.24% |
| CCc1cccc(NC(=O)C2CCCN(S(=O)(=O)c3cccs3)C2)c1 (stereo not drawn) | inactive: 17.3% |
| COc1ccc(N(CC(=O)NN=C2CCN(C)CC2)S(=O)(=O)c2ccccc2)c(OC)c1 | inactive: 13.2% |
| CN(C)CCNC(=O)Nc1ccc(F)cc1F | inactive: -4% |
| CCN(CC(=O)NCc1ccc(F)cc1)Cc1nc2cc(Cl)ccc2c(=O)[nH]1 | inactive: -0.0853% |
| Cc1ccc(N(CC(=O)NC2CCCCC2)C(=O)CCCC(=O)Nc2ccccn2)cc1 | inactive: 3.44% |
| Cc1ccc(S(=O)(=O)NCCC(=O)Nc2cccc(S(N)(=O)=O)c2)cc1C | inactive: -4.48% |
| Cc1ccc(NC(=O)C2CCCN2C(=O)NC2CCCCC2)cc1F (stereo not drawn) | inactive: 3.85% |
| O=C(Cc1cc(=O)[nH][nH]1)N/N=C/c1cccc(Cl)c1Cl | inactive: 17.1% |
| C=CC[n+]1c(-c2ccccc2)csc1NC(C)(C)C | inactive: -23.4% |
| CCOc1ccccc1N1CCN(C(=O)c2cccc(-c3ccc(O)cc3)c2)CC1 | inactive: -72.8% |
| COc1cccc(NC(=O)C2CCC(CNS(=O)(=O)c3cccs3)CC2)c1 (stereo not drawn) | inactive: -9.99% |
| O=C(O)CCCCCn1c(SCc2cc(=O)n3cc(Cl)ccc3n2)nc2ccsc2c1=O | inactive: 14.2% |
| O=C(/C=C/c1cccc(Br)c1)N1CCN(c2cccc(C(F)(F)F)c2)CC1 | inactive: 15.9% |
| CCOC(=O)C1=C(COC(=O)[C@@H](NC(=O)c2cccc(C)c2)C(C)C)NC(=O)NC1C (stereo partly drawn) | inactive: 22.8% |
| O=C(CSc1nc2ccccc2n1Cc1ccc(Cl)cc1)N/N=C/c1ccccc1C(=O)O | inactive: -1.74% |
| Cc1cc(NC(=O)COc2ccccc2C(N)=O)no1 | inactive: -6.48% |
| COc1ccc(NC(=O)c2cc(C3CCCCN3C(=O)Cc3ccc(N(C)C)cc3)on2)c(C)c1 (stereo not drawn) | inactive: -5.78% |

| SMILES | growth rescue (activation) |
| --- | --- |
| Cc1nc(NC(=O)c2ccc([N+](=O)[O-])cc2Cl)sc1C(=O)N(C)C | inactive: 14% |
| Cc1ccc2cc(C3CC(c4ccco4)=NN3C(=O)CCC(=O)O)c(Cl)nc2c1 (stereo not drawn) | inactive: 8.63% |
| Cc1coc2c1c(C)cc1oc(=O)c(CC(=O)NCC(=O)NCC(=O)O)c(C)c12 | inactive: -22% |
| COCc1ccc(CN2CCCC(CCC(=O)NCc3cccc(OC)c3)C2)o1 (stereo not drawn) | inactive: 1.84% |
| CCOc1ccc(CN(C)C(=O)NNC(=O)c2ccc(C)cc2)cc1OC | inactive: -0.672% |
| CCN(CC)CCN(Cc1cc2cc(C)ccc2[nH]c1=O)C(=S)NCc1ccco1 | inactive: -3.44% |
| CC1CCCN(CCOCCOc2ccc(Br)cc2Cl)C1 (stereo not drawn) | inactive: -16.4% |
| CC1(C)N([O-])C2=C(c3ccccc3C2=O)[N+](=O)C1(C)C | inactive: -25% |
| Cn1cc(-c2ccccc2)cc(C#N)c1=O | inactive: -8.07% |
| CCOC(=O)NC(=O)CSc1nc2ccc(C)cc2[nH]1 | inactive: 10.8% |
| CNc1cccc(-c2cccc(C(=O)N3CCOCC3)c2)n1 | inactive: 1.44% |
| CN(C)c1ccc(Nc2c3c4c(cccc4n(C)c2=O)C(=O)c2ccccc2-3)cc1 | inactive: -4.72% |
| O=C(COC(=O)c1ccccc1O)Nc1cccnc1Cl | inactive: 6.15% |
| COc1cc(NC(=O)COc2ccc(Cl)cc2)ccc1-c1cc2ccccc2oc1=O | inactive: -2.82% |
| O=C(NC1CC2CCCC(C1)N2C(=O)Nc1ccccc1)c1ccccc1 (stereo not drawn) | inactive: 5.36% |
| O=C(CSc1ccccn1)Nc1nc2ccccc2s1 | inactive: 11.1% |
| CCOC(=O)C(C)(C)N(Cc1ccc(C)cc1)S(=O)(=O)c1ccc(Cl)c([N+](=O)[O-])c1 | inactive: 14.2% |
| COC(=O)c1ccc(CNC(=O)c2cc3ccccc3oc2=O)cc1 | inactive: 2.74% |
| C#CCSc1nnc(-c2ccc(O)cc2)o1 | inactive: 4.83% |
| COc1ccc(C(=O)Nc2cc(Cl)ccc2C(=O)O)cc1 | inactive: -0.888% |
| CCOc1ccccc1NC(=O)N1CCc2cc(S(=O)(=O)N3CCC(C)CC3)ccc21 | inactive: -4.43% |
| Cc1cccc(S(=O)(=O)NC(=O)C2(C)CCN2C(=O)Cc2cc(F)ccc2F)c1 (stereo not drawn) | inactive: -15.7% |
